Results on 25 compounds are retold here after the supplement of paper PMC10986608.

This is one part of the list. Most values come without repeats; read them as rough.

The assay concerns Candida albicans DPL-15. In words: growth (OD600) after compound treatment (apparently relative to screen median) (relative growth (fraction; screen median 1.02)); DPL-15 is a caspofungin-resistant clinical isolate; higher = more fungal growth (less antifungal activity). To be noted: 25 µM; RPMI 1640; 48 h; 30 °C.
For the compound `Cc1nn(C)cc1Nc1cc(O)cc(O)c1C(=O)N1CC2CC2C1` (stereo not given), the growth worked out at 1.2.
For `O=Cc1ccccc1OC/C=C/c1ccccc1` the value was 1.03; for `COC[C@H]1O[C@H](c2ccccc2)C=C[C@@H]1OCC#Cc1cc(C#N)ccc1N`, 0.932.
For `Cc1cccc2c1N=C1CCCCC12Cc1occc(=O)c1OS(C)(=O)=O` (stereo not given) the value was 1.25; for `COCCN1C(NCCc2cccs2)=NC(c2ccccc2)C(C(=O)OC)=C1C` (stereo not given), 1.16; for `C[C@H]1Cc2c(-c3ccccc3)nc3c(c2CO1)CN(C(=O)Nc1cccc(C#N)c1)CC3`, 0.97.
As for `CS(=O)(=O)Oc1c(CC23CCCCC2=Nc2ccccc23)occ(Br)c1=O` (stereo not given), the growth came out at 0.933.
For `CC(C)CC1=NCC(C)(C)NC2=C1C(c1cccc(C(F)(F)F)c1)NC2=O` (stereo not given) the value was 0.964.
In the case of `CC1=C[C@H](COc2cccc(F)c2)O[C@]2(C1)C(=O)N(Cc1ccccc1)c1ccccc12` it was 0.896; in that of `CC(C)Cc1nn(-c2ccccc2)c2c1C(c1ccc3c(c1)OCO3)NC2=O` (stereo not given), 0.918.
In the case of `O=C(NCC1=CC=CC=C1)C12CC3C[C@@H](CC(C3)C1)C2` it was 0.963.
For `CC/C=C/C[C@@]1(C(=O)OC)C=C[C@@H](C)[C@H](c2ccccc2Br)N1C(=O)C(F)(F)F`, the growth is 0.911.
For `COC(=O)C/C=C/[C@@H](C)[C@H](NC(=O)OC)c1ccccc1Br` the value was 0.943; for `Cc1cc(F)ccc1C1c2c(CC(C)C)n[nH]c2C(=O)N1c1ccc(N(C)C)cc1` (stereo not given), 0.937; for `COC(=O)C1=C(C)NC(=O)NC1c1ccc(Cl)cc1` (stereo not given), 1.16.
For `O=c1ccoc(CC23CCCC2=Nc2ccccc23)c1O` (stereo not given) the value was 1.12.
In the case of `COc1ccc2c(c1)O[C@H](c1ccc3c(c1)OCO3)[C@@H](OC(=O)Nc1ccc(C)c(Br)c1)C2=O` it was 1.53; in that of `COc1ccc(OC)c(-c2ccccc2/C=N/NS(C)(=O)=O)c1`, 0.983.
For the compound `COc1ccc(C2NC(=S)N(C(C)(C)C)C(C)=C2C(C)=O)cc1` (stereo not given), the growth amounted to 1.02.
For `CC1=NCC(C)(C)NC2=C1C(c1cccc(C(F)(F)F)c1)NC2=O` (stereo not given), the growth is 0.886.
For `COC(=O)c1cc(OC)c(Cl)c(O)c1I` the value was 0.844; for `CNc1ccccc1C(=O)OCC(=O)c1ccc(OC)cc1`, 1.03; for `O=S(=O)(c1cccs1)N1CCCc2nc(-c3ccc(Br)cc3)ccc21`, 0.976.
In the case of `CCOC(=O)[C@H]1[C@@H](O)[C@@]2(O)c3c(OC)cc(OC)cc3O[C@@]2(c2ccc(OC)cc2)[C@@H]1c1ccc(Br)cc1` it was 1.07; in that of `Cc1ccc(C2C3=C(C(=O)N2Cc2ccccc2)N(C)CCN=C3C(C)C)cc1` (stereo not given), 0.954.
